# Where a name gives a salt, the structure may show the parent alone. In all, about 2,800 compounds were measured (“cell viability relative to vehicle”: median about 1.1, lowest 2% from about 0.19 on). The list shows a part of the results.
# Tested on: NCI-H2228 parental
# Assay: cell viability relative to vehicle (fraction of vehicle); NCI-H2228 is an ALK-positive lung cancer line and DTP means drug-tolerant persister; higher = less growth inhibition
# Settings: 100 nM; treatment time 6 days
# Procedure, shortened: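 The 3114-agent TargetMol anti-cancer compound library was tested at 100 nM for 6 days on parental NCI-H2228 cells and on persister cells derived with 1000 nM of a targeted drug for 13 days. ATP readout by the CellTiter-Glo 3D Cell Viability Assay gave cell viability relative to DMSO vehicle-treated cells.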
row,SMILES,cell viability
1,CN(C)c1ccc(/C=C2/C(=O)Nc3ccccc32)cc1,1.05
2,COc1cc(NS(C)(=O)=O)ccc1Nc1c2ccccc2nc2ccccc12 [Amsacrine],0.209
3,NC(=O)Cc1cc[nH]n1 [1H-Pyrazole-3-acetamide],0.268
4,COc1ccc(/C=C/C(=O)c2c(O)cc(OC)cc2OC)cc1 [Flavokawain A],1.08
5,FC(F)c1nc2ccccc2n1-c1nc(N2CCOCC2)nc(N2CCOCC2)n1,0.983
6,CN(C(=O)CNC(=O)/C=C/c1cccc(Cl)c1)C1CCS(=O)(=O)CC1,0.834
7,CCN1CCN(c2cc3c(cc2F)c(=O)c(C(=O)O)cn3C2CC2)CC1 [Enrofloxacin],1.03
8,C1CCN2C[C@@H]3C[C@@H](CN4CCCC[C@@H]34)[C@H]2C1 [(-)-Sparteine sulfate pentahydrate],0.914
9,COc1ccccc1S(=O)(=O)Nc1ccc2c(c1)CN(C)C(=O)N2,1.12
10,COc1ccc(CCC(=O)c2ccc(O)cc2)c(OC)c1 [Loureirin A],1.01
11,O=c1cc(-c2ccc(O)c(-c3c(O)cc(O)c4c(=O)cc(-c5ccc(O)cc5)oc34)c2)oc2cc(O)cc(O)c12 [Amentoflavone],1.08
12,Cc1ccc(Cl)c(Nc2ccccc2C(=O)O)c1Cl [Meclofenamate Sodium],0.911
13,O=C(NCCO[N+](=O)[O-])c1cccnc1 [Nicorandil],1.14
14,CCCN(CCC)C(=O)C1=Cc2ccc(-c3ccc(C(=O)N4CCCC4)cc3)cc2N=C(N)C1 [Motolimod],1.01
15,CN(C)CCOc1ccc(/C(=C(/CCCl)c2ccccc2)c2ccccc2)cc1 [Toremifene citrate],1.31
16,CN(C)CCOc1ccc(/C(=C(/CCCl)c2ccccc2)c2ccccc2)cc1 [Toremifene],1.15
17,CC(C(=O)O)c1ccc(N2Cc3ccccc3C2=O)cc1 (stereo not given) [Indoprofen],0.995
18,CO[C@@]12[C@H](COC(N)=O)C3=C(C(=O)C(C)=C(N)C3=O)N1C[C@@H]1N[C@@H]12 [Mitomycin C],1
19,COc1cc(O)c(CC=C(C)C)c(O)c1C(=O)/C=C/c1ccc(O)cc1 [Xanthohumol],1.12
20,Cc1cc(/N=N/c2ccc(S(=O)(=O)Nc3ccccn3)cc2)c(N)cc1O,1.07
21,Cc1ncc(NC(=O)c2ccc(CN3CCN(C)CC3)c(C(F)(F)F)c2)cc1Nc1nccc(-c2cccnc2)n1 [Flumatinib],1.07
22,CC1=Nc2ccc(Cl)cc2S(=O)(=O)N1 [Diazoxide],1.17
23,NC1(C(=O)N[C@@H](CCO)c2ccc(Cl)cc2)CCN(c2nc[nH]c3nccc2-3)CC1 [Capivasertib],1.01
24,Oc1ccc(OCc2ccccc2)cc1 [Monobenzone],1.15

row,SMILES,cell viability
1,CC(C)C1=CC2=CC[C@@H]3[C@](C)(CCC[C@@]3(C)C(=O)O)[C@H]2CC1 [Abietic Acid],1.21
2,CNC(=O)[C@H](Cc1c[nH]c2ccccc12)NC(=O)[C@@H](CC(=O)NO)CC(C)C [Ilomastat],0.991
3,COc1cccc(/C=N/N(C(=O)C(F)(F)F)c2ccc(C)cc2C)c1,1.12
4,C[C@]12CC[C@@H]3c4ccc(O)cc4CC[C@H]3[C@@H]1CC[C@H]2O [17α-Estradiol],1.12
5,O=C(O)/C=C/c1ccc(Cn2ccnc2)cc1 [Ozagrel],1.17
6,O=C(O)/C=C/c1ccc(Cn2ccnc2)cc1 [Ozagrel hydrochloride],1.15
7,COc1cc2nccc(Oc3ccc(NC(=O)C4(C(=O)Nc5ccc(F)cc5)CC4)cc3)c2cc1OC [Cabozantinib Malate],1
8,COc1cc2nccc(Oc3ccc(NC(=O)C4(C(=O)Nc5ccc(F)cc5)CC4)cc3)c2cc1OC [Cabozantinib],1.03
9,O=C1CCc2ccccc2C1 [Beta-Tetralone],1.16
10,CNC(=O)c1cc(COc2nnc(Nc3ccc(Cl)cc3)c3ccoc23)ccn1 [Telatinib],1.05
11,CCCc1nc(C)c2c(=O)nc(-c3cc(S(=O)(=O)N4CCN(CC)CC4)ccc3OCC)[nH]n12 [Vardenafil hydrochloride trihydrate],0.84
12,N[C@@H]1CC[C@@H](c2ccc(Cl)c(Cl)c2)c2ccccc21 [Dasotraline hydrochloride],1.14
13,Cc1cc(C)cc(C(=O)NOCCCCCC(=O)NO)c1,0.796
14,CCn1nc(C(=O)O)c(=O)c2cc3c(cc21)OCO3 [Cinoxacin],0.902
15,CCOc1nc2cccc(C(=O)O)c2n1Cc1ccc(-c2ccccc2-c2noc(=O)[nH]2)cc1 [Azilsartan],1.09
16,CC(C)(Oc1ccc(C(=O)c2ccc(Cl)cc2)cc1)C(=O)O [Fenofibric acid],1.28
17,Cc1cc([C@@H](C)Nc2ccccc2C(=O)O)c2nc(N3CCOCC3)cc(=O)n2c1,1.09
18,COc1cc(O)c(C(=O)Nc2nc(C(=O)NCCN(C(C)C)C(C)C)cs2)cc1OC [Acotiamide hydrochloride],0.934
19,COc1ccc2c(c1)C(c1ccc(F)cc1)=C(CN1CCCC1)CO2,1.1
20,O=C1CC2(CCCC2)CC(=O)N1CCCCN1CCN(c2ncccn2)CC1 [Buspirone hydrochloride],1.16
21,O=C(NOC[C@H](O)CO)c1ccc(F)c(F)c1Nc1ccc(I)cc1F,0.82
22,Cc1cc(C)c(/C=C2\C(=O)Nc3ccccc32)[nH]1 [Semaxanib],0.924
23,CC1(C)CC[C@]2(C(=O)O)CC[C@]3(C)C(=CC[C@@H]4[C@@]5(C)CC[C@H](O)[C@@](C)(CO)[C@@H]5CC[C@]43C)[C@@H]2C1 [Hederagenin],1.19
24,COc1ccc(S(=O)(=O)N(C(C)=O)c2ccccc2/C=C/c2cc[n+]([O-])cc2)cc1,0.614

row,SMILES,cell viability
1,CNC(C)C1CCC(N)C(OC2C(N)CC(N)C(OC3OCC(C)(O)C(NC)C3O)C2O)O1 (stereo not given) [Gentamycin sulfate],0.939
2,Cc1c(F)cc(C(=O)NC2CC2)cc1-c1ccc(C(=O)NCC(C)(C)C)cn1 [Losmapimod],1.11
3,Cc1nc(-c2cn3c(n2)-c2ccc(-c4cnn(C(C)(C)C(N)=O)c4)cc2OCC3)n(C(C)C)n1 [Taselisib],0.612
4,Nc1nc(NCCc2ccc(O)cc2)nc2nc(-c3ccco3)nn12,1.05
5,COc1ccc(C(NC(=O)c2cnc(-c3cccnn3)[nH]c2=O)c2ccc(OC)cc2)cc1,0.98
6,O=c1nc(N2CCN(CC3CCCCC3)CC2)sc2c([N+](=O)[O-])cc(C(F)(F)F)cc12,1.08
7,CNC(=O)c1cnn(-c2nc(N)c3ncn([C@@H]4O[C@H](CO)[C@@H](O)[C@H]4O)c3n2)c1 [Regadenoson],0.981
8,N#Cc1ccnc(N2C(=O)CC[C@H]2C(=O)N(c2cncc(F)c2)[C@H](C(=O)NC2CC(F)(F)C2)c2ccccc2Cl)c1 [Ivosidenib],1.09
9,C=CC(=O)Nc1ccc2ncnc(Nc3cccc(Br)c3)c2c1,0.914
10,CCC(=O)c1c(O)cc(O)cc1O [Flopropione],1.11
11,CC1Cc2ccccc2N1NC(=O)c1ccc(Cl)c(S(N)(=O)=O)c1 (stereo not given) [Indapamide],1.34
12,O=C(CCCCCCNC(=O)c1cnc(N(c2ccccc2)c2ccccc2Cl)nc1)NO [Citarinostat],1.03
13,O=C(/C=C\n1cnc(-c2cc(C(F)(F)F)cc(C(F)(F)F)c2)n1)NNc1ccccn1 [Verdinexor],0.555
14,O=C(O)c1ccc(CN2CCC(CN[C@@H]3C[C@H]3c3ccccc3)CC2)cc1,0.997
15,CCOCC(O)COc1ccc(NC(=O)CC[S+](C)C)cc1 (stereo not given) [Suplatast tosilate],1.07
16,CN1CCN(CCOc2cc(OC3CCOCC3)c3c(Nc4c(Cl)ccc5c4OCO5)ncnc3c2)CC1 [Saracatinib],1.13
17,Cc1cc(CC(=O)O)n(C)c1C(=O)c1ccc(Cl)cc1 [Zomepirac Sodium],0.884
18,O=C(NCCCNc1nc(Nc2cccc(CN3CCOCC3)c2)ncc1C1CC1)C1CCC1,0.937
19,Nc1ccc2cc3ccc(N)cc3nc2c1 [Proflavine Hemisulfate],1.13
20,C[C@H](CCC(=O)O)[C@H]1CC[C@H]2[C@@H]3CC[C@@H]4C[C@H](O)CC[C@]4(C)[C@H]3C[C@H](O)[C@]12C [Deoxycholic acid],1.12
21,Nc1ncnc2c1c(I)cn2[C@@H]1O[C@H](CO)[C@@H](O)[C@H]1O [5-Iodotubercidin],0.918
22,"CCC(=O)Oc1ccc2c(c1)CCC1C2CCC2(C)C(OC(=O)CC)CCC12 (stereo not drawn) [17-Beta-Estradiol-3,17-Dipropionate]",1.24
